This note sets out measurements from the antibiotic and cytotoxicity screens of Wong et al. (2023).

Assay [1] has as its system HSkMC (human skeletal muscle cells). Kind of assay: cytotoxicity call (relative viability < 0.9). The note with it: 10 µM.
For assay [2], the system named is S. aureus RN4220. Kind of assay: growth inhibition call (relative growth <= 0.2). The settings on record: 50 µM.

This is one part of the list.

Take `COc1ccccc1S(=O)(=O)N(C)C[C@H]1OCc2cnnn2CCCC(=O)N([C@@H](C)CO)C[C@@H]1C`: the cytotoxicity call in assay [1] was “inactive”. In addition, the growth inhibition call in assay [2] was “inactive”.

Regarding `NC1=CC(=O)c2ccccc2C1=O`, the cytotoxicity call in assay [1] is “inactive”. In addition, in assay [2], the growth inhibition call is “inactive”.

As for `Cc1noc(C)c1S(=O)(=O)Nc1ccc2c(c1)CC(=O)N([C@H](C)CO)C[C@H](C)[C@H](CN(C)S(=O)(=O)c1ccccc1)O2`, in assay [1], the cytotoxicity call is “inactive”. Besides, the growth inhibition call in assay [2] was “inactive”.

In the case of `COc1ccc(S(=O)(=O)Nc2ccc3c(c2)C(=O)N([C@H](C)CO)C[C@H](C)[C@H](CN(C)Cc2ccc(Oc4ccccc4)cc2)O3)cc1`, in assay [1], the cytotoxicity call is “inactive”. Further, in assay [2], the growth inhibition call was “inactive”.

For `C[C@@H]1CN([C@@H](C)CO)C(=O)c2cc(NC(=O)Nc3ccc(C(F)(F)F)cc3)ccc2O[C@H]1CN(C)C(=O)Nc1ccc(C(F)(F)F)cc1`, in assay [1], the cytotoxicity call is “inactive”. In addition, in assay [2], the growth inhibition call was “inactive”.

Turning to `C[C@H]1CCCCO[C@@H](CN(C)Cc2ccncc2)[C@@H](C)CN([C@@H](C)CO)C(=O)c2cc(NC(=O)Nc3ccc(F)cc3)ccc2O1`, the cytotoxicity call in assay [1] was “inactive”. In addition, the growth inhibition call in assay [2] was “inactive”.

For the compound `COc1ccc(NC(=O)Nc2ccc3c(c2)[C@H]2C[C@H](CC(=O)NCC(F)(F)F)O[C@H](CO)[C@H]2O3)cc1`, the cytotoxicity call in assay [1] was “inactive”. In assay [2], the growth inhibition call is “inactive”.

For the compound `COC(=O)c1c(CC[C@@H](CO)NC(=O)N[C@H](Cc2ccccc2)Cn2cc(-c3ccccc3N)nn2)oc(C(C)=O)c1C(=O)OC`, the cytotoxicity call in assay [1] was “inactive”. The growth inhibition call in assay [2] is “inactive”.

As for `C[C@@H]1CN([C@@H](C)CO)C(=O)c2cc(NC(=O)Nc3cccc4ccccc34)ccc2O[C@@H](C)CCCCO[C@@H]1CN(C)S(=O)(=O)c1cccs1`, the cytotoxicity call in assay [1] was “inactive”. For the same compound, the growth inhibition call in assay [2] was “inactive”.

Consider `CC(C)NC(=O)N(C)C[C@@H]1OCc2cn(nn2)CCCC(=O)N([C@@H](C)CO)C[C@H]1C`, for which, in assay [1], the cytotoxicity call was “inactive”. In addition, the growth inhibition call in assay [2] was “inactive”.
